# Data as given in the supplement of paper PMC3334620.
# Over roughly 33,000 sequences, “E-score (-0.5 to 0.5)” has its median near -0.04; the highest 2% begin near 0.36. Some of the results follow.
# Molecular target: T1, Hmlalpha2 (UniProt P0CY09)
# T1 sequence: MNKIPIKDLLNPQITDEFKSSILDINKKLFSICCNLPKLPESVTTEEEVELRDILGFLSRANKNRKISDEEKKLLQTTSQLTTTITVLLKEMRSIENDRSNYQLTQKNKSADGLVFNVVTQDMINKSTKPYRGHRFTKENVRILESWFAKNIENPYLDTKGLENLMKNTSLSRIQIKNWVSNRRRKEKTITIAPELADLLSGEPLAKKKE
# Assay: PBM E-score (8-mer binding enrichment) (E-score (-0.5 to 0.5)); higher = stronger / more preferred TF binding; most listed sequences are background and not binding sites
# Conditions: protein concentration: 200 nM; construct: GST-full length
# Summary of the method: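 Each ungapped eight-base word and its reverse complement, pooled, received an E-score from the Universal PBM Analysis Suite. Underlying scans, normalised with masliner, recorded fluorescent anti-GST bound to GST-tagged yeast transcription factors. These were applied at about 100-200 nM to universal all-10-mer Agilent arrays double-stranded by primer extension.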
row,Sequence,PBM E-score
1,GCTAATCA,0.0512
2,ATTCGCTC,-0.0478
3,CGAAGTCA,-0.15
4,GCGCTGGA,-0.402
5,TATTGCCA,-0.0146
6,ATCGCAAA,0.0675
7,GAGCACTA,-0.0459
8,AGCCGCAT,-0.0538
9,ACATACTA,0.253
10,CTCTAGAC,-0.116
11,ATGAAAAG,-0.0907
12,AACGCTTC,0.119
13,AACCACCA,-0.0618
14,ACCGCGGG,-0.145
15,CTAAAGAA,0.178
16,CATCTCGG,-0.205
17,ATATGACG,0.105
18,AAATCGTC,-0.0199
19,ACCACAGA,-0.0813
20,AGAGCCAG,-0.181
21,CACCATTA,-0.0406
22,ACTGCTTA,0.0138
23,ATTGCACC,0.0314
24,CCTTGATA,0.0589
25,ATATTAAT,0.217

row,Sequence,PBM E-score
1,GGCGCTTA,-0.252
2,ATCTAGCA,0.0441
3,ACGACAAC,0.286
4,AGCGCTTA,-0.0782
5,ATGTGAAC,0.148
6,TAAATTAA,0.211
7,AGAGGCTG,-0.0969
8,AAAGTAGG,0.146
9,AACTCTCT,-0.107
10,GCCTTGGA,-0.184
11,GTTGACTA,-0.0215
12,ACTGCCCG,0.0627
13,TAGGCCCA,-0.14
14,CTCAAACA,0.243
15,ATATCTGC,0.015
16,ACGTCCCT,0.163
17,ACGATAAA,0.108
18,CCTCAGAC,-0.217
19,ACAATACC,0.201
20,GGGGTACA,-0.0743
21,CCAAATCG,-0.0556
22,AACAGGTG,0.184
23,AACTTTGG,-0.0327
24,ATGTTGAG,0.33
25,ACCACATC,0.0419

row,Sequence,PBM E-score
1,GCAATTCC,-0.143
2,AGCAGTAC,0.0922
3,ACCACGTC,-0.0362
4,CTCTCGTA,0.0261
5,GCACCCCC,-0.216
6,ACCTGACG,-0.213
7,ACCGGGTG,-0.159
8,ACCGTGAT,-0.0701
9,TGGTCACA,-0.0861
10,GGGGAACC,-0.213
11,AGCAACCT,-0.0897
12,CTGACCAA,-0.0338
13,GATTAGCA,0.0131
14,CTGCCTCA,-0.209
15,ATTGACCA,-0.0224
16,TCGCAACA,0.0939
17,CGCTAATA,0.0277
18,GTTAAACA,0.375
19,AGCCCCGC,-0.0401
20,GATGCCCC,-0.404
21,AAGTGGCA,-0.149
22,AAACAAGT,0.207
23,CTGGGGCC,-0.423
24,GCAATGGA,-0.0902
25,ACTACCGG,-0.24

row,Sequence,PBM E-score
1,TCAATTGA,-0.0515
2,GCAAGAAC,0.202
3,CATCGGTC,-0.163
4,CCAGCGCG,-0.0525
5,GCGCCCGC,-0.181
6,GCGATCCC,-0.13
7,AACTGAAA,0.103
8,CCCAAGAC,-0.109
9,CTCTCGCA,-0.236
10,CATCTTCA,-0.191
11,CAGAGATG,0.117
12,CCTGACTC,-0.243
13,GCCCATCA,-0.114
14,AGACCTTC,-0.111
15,GTATCAAC,0.0736
16,CAGGATTA,0.02
17,CGAGCACC,-0.162
18,ACGACGAT,-0.0531
19,CTTGGGCC,-0.304
20,AAATATGG,-0.00812
21,ATCAAGGG,-0.0776
22,ACTGAGAT,-0.0538
23,AACTAAAG,0.262
24,AGGGAACA,-0.0232
25,TACGCATA,0.32

row,Sequence,PBM E-score
1,TATCGAAA,0.0459
2,CTTGTCGC,-0.0405
3,AAACATTA,0.197
4,CCGCTTAG,-0.226
5,CCCACAGG,-0.23
6,CGGCCGGA,-0.205
7,TCTAACCA,0.123
8,CCTACAGC,-0.164
9,GCTCGCAC,-0.273
10,AAGCACGG,-0.0458
11,TGAGGACA,0.0495
12,AAGTCAAA,0.0282
13,AATTTTTG,0.0384
14,CCCTCACG,-0.238
15,AATCGTGG,0.194
16,AAAAGGAG,-0.141
17,GGGTTGAC,-0.145
18,GCATGCCC,-0.0601
19,ATCCAGTA,0.101
20,AGACGACG,-0.129
21,CCCTTGTA,0.328
22,GTGATTTA,0.18
23,TAGGCACA,-0.0943
24,CAGAGATC,-0.201
25,TCCGGGAA,-0.0573

row,Sequence,PBM E-score
1,ATGCCCTC,-0.0805
2,GAGCTCGA,0.0294
3,CTACAGAA,0.0289
4,ATCATCGC,0.00351
5,CCTTTGTC,-0.0263
6,CAGAAATA,0.0979
7,AACGGCAC,-0.112
8,CTCCGAAG,-0.222
9,TATATGAA,0.16
10,GAGGTATA,0.0243
11,ACGATGCA,0.00955
12,ATAGTAGA,-0.0426
13,ACTGTTGA,0.0581
14,AGTATCTG,-0.138
15,AAGTTCCT,-0.102
16,AGTACTAA,0.173
17,AGTCCGTC,-0.103
18,AAGACACG,0.373
19,AGATTCCA,0.0918
20,ATGTTCAA,0.296
21,CGTGGTTA,0.0938
22,CGAAAGCC,-0.236
23,CCGCACGG,-0.268
24,CAGGTTGG,-0.0606
25,ACAATGCA,0.258

row,Sequence,PBM E-score
1,CCGCCTTA,-0.0118
2,ATACCGAA,0.0865
3,AGGATATG,-0.0728
4,ATTCTATG,0.0697
5,TGAACAAA,0.275
6,ATACGGGC,-0.0779
7,CAGTCTGG,-0.176
8,CAACTCAC,0.0622
9,GCAGAATA,-0.0524
10,ACGAGCCC,-0.0622
11,CATCCAAG,-0.159
12,GCTAGTTA,0.0263
13,AAGGGTAG,-0.0858
14,AGCACGAT,0.147
15,CCTTCAAG,0.00645
16,CTTTGCCC,-0.119
17,AGCGCGGA,-0.127
18,ACGCACTA,0.111
19,ATCTATTA,0.133
20,AGACCCCC,-0.0538
21,ATGTATGG,0.181
22,CCCCTGAA,-0.062
